Common to all, as to experiment: protein-binding microarray (PBM)
Conditions in all cases: PBM: ~300 nM protein, 6 mM HEPES pH 7.8, 80 mM KCl, 0.5 mM EDTA, 0.5 mM EGTA, 6% glycerol, 35 ng/ul poly-dIdC, 1% milk, 1 h, room temperature; Ap Aiptasia and Nv Nematostella (sea anemones) / Co Capsaspora / Aq Amphimedon (sponge) / Dm Drosophila / Hu human; RHD is the Rel homology domain; high values mean tight binding; most listed sequences are background and not binding sites; double strand, one strand shown

In one experiment the target is T1, GST-Ap-NF-kB RHD (UniProt A0A913YAJ5).
T1 sequence: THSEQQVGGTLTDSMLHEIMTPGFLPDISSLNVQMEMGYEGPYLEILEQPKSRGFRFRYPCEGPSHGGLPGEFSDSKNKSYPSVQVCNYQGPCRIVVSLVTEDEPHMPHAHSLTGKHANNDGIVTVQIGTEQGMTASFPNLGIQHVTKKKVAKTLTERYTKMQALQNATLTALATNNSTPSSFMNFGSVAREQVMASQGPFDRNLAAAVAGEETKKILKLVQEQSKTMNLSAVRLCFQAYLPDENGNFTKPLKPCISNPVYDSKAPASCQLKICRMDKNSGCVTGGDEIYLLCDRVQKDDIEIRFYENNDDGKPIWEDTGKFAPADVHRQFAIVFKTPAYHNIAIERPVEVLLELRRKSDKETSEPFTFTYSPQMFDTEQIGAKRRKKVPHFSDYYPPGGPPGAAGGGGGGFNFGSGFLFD

In experiment [1] the target is T2, GST-Nv-NF-kB (Cys allele) (UniProt E5G601).
T2 sequence: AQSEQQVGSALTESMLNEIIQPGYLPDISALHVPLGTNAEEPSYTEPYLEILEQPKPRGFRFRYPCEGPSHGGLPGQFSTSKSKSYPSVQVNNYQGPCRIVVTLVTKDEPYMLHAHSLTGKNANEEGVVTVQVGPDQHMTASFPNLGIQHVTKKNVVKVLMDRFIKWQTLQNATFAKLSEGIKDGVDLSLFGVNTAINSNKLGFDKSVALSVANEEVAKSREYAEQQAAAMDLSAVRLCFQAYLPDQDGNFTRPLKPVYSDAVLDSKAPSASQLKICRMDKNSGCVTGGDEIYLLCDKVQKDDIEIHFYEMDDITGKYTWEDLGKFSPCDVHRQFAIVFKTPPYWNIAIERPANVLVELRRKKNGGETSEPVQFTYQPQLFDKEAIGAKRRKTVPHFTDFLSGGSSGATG

The target in the next experiment is T3, GST-Co-NF-kB (UniProt F1ARL5).
T3 sequence: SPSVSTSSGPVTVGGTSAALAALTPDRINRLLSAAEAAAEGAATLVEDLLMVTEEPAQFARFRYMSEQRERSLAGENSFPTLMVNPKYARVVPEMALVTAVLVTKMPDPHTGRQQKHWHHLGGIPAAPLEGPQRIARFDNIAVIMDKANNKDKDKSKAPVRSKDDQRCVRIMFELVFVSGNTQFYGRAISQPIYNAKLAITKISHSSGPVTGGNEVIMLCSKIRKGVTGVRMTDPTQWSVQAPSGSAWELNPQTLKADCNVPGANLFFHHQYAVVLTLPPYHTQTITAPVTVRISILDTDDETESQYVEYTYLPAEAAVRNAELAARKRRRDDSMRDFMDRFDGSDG

A further experiment addresses T4, GST-Dm-Relish (UniProt Q94527).
T4 sequence: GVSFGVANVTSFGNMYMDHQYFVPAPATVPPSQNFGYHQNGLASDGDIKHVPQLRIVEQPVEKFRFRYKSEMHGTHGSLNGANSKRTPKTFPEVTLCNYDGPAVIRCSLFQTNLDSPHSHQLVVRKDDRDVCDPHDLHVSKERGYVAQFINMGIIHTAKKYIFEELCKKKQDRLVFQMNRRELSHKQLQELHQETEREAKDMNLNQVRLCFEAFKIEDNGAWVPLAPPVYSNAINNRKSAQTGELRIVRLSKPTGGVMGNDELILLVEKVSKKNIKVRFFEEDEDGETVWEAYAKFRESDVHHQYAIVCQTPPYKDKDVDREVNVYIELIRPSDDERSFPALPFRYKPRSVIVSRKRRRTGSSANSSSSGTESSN

For another experiment, the target named is T5, GST-Aq-NF-kB (UniProt A9Y5G7).
T5 sequence: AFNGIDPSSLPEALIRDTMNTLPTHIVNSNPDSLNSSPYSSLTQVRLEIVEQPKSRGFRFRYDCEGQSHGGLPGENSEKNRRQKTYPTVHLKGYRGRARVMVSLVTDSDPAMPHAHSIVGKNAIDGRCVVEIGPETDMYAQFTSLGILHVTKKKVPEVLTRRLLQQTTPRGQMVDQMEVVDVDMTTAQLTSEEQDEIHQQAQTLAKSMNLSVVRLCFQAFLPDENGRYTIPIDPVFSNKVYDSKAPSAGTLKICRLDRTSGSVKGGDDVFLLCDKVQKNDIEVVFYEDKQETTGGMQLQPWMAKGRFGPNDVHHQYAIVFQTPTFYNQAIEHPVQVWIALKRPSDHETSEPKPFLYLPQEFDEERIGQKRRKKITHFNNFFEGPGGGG

The list shows a part of the results, in another mix than the full data. The list includes weakly bound sequences.

The text below walks through data of paper PMC5700166.

Consider “CCGATTAACATCATTCTCATAGATGATGTTAATCGGGTCTTGATTCGCTTGACGCTGCTG”, for which the binding signal was -0.264 z-score with GST-Ap-NF-kB RHD; -0.677 z-score in experiment [1]; 0.0363 z-score in the experiment with GST-Co-NF-kB; -0.326 z-score with GST-Dm-Relish; -0.507 z-score in the experiment with GST-Aq-NF-kB.

As for “CCGATTAACATCAGGAAGTTCCATGATGTTAATCGGGTCTTGATTCGCTTGACGCTGCTG”, the binding signal with GST-Ap-NF-kB RHD is -0.0938 z-score; in experiment [1], 0.00627 z-score; with GST-Co-NF-kB, -0.292 z-score; with GST-Dm-Relish, 0.562 z-score; in the experiment with GST-Aq-NF-kB it was 1.48 z-score.

Turning to “CCGATTAACATCACAACGTCTTATGATGTTAATCGGGTCTTGATTCGCTTGACGCTGCTG”, the binding signal is -0.46 z-score with GST-Ap-NF-kB RHD; -0.637 z-score in experiment [1]; -0.101 z-score in the experiment with GST-Co-NF-kB; -0.249 z-score in the experiment with GST-Dm-Relish; -0.424 z-score with GST-Aq-NF-kB.

In the case of “CCGATTAACATCAGGCACCTATCTGATGTTAATCGGGTCTTGATTCGCTTGACGCTGCTG”, the binding signal in the experiment with GST-Ap-NF-kB RHD was 0.294 z-score; in experiment [1], -0.221 z-score; with GST-Co-NF-kB it was -0.241 z-score; in the experiment with GST-Dm-Relish, -0.306 z-score; in the experiment with GST-Aq-NF-kB it was -0.133 z-score.

For “CCGATTAACATCATTCAGCTACTTGATGTTAATCGGGTCTTGATTCGCTTGACGCTGCTG”, the binding signal with GST-Ap-NF-kB RHD is -0.0522 z-score; in experiment [1], 0.21 z-score; in the experiment with GST-Co-NF-kB it was -0.139 z-score; with GST-Dm-Relish, -0.591 z-score; with GST-Aq-NF-kB it was -0.466 z-score.

On to “CCGATTAACATCAATCCTATCGATGATGTTAATCGGGTCTTGATTCGCTTGACGCTGCTG”, for which the binding signal with GST-Ap-NF-kB RHD was -0.581 z-score; in experiment [1], -0.726 z-score; with GST-Co-NF-kB, -0.302 z-score; with GST-Dm-Relish, -0.555 z-score; with GST-Aq-NF-kB, -0.539 z-score.

With “CCGATTAACATCACCCCGAACGCTGATGTTAATCGGGTCTTGATTCGCTTGACGCTGCTG”, the binding signal with GST-Ap-NF-kB RHD was 1.59 z-score; in experiment [1], 0.14 z-score; in the experiment with GST-Co-NF-kB, 2.02 z-score; with GST-Dm-Relish, 0.832 z-score; in the experiment with GST-Aq-NF-kB, 0.901 z-score.

For “CCGATTAACATCAAGTCTGCGATTGATGTTAATCGGGTCTTGATTCGCTTGACGCTGCTG”, the binding signal with GST-Ap-NF-kB RHD was -1.41 z-score; in experiment [1], -0.277 z-score; in the experiment with GST-Co-NF-kB, -1.4 z-score; with GST-Dm-Relish, -0.881 z-score; with GST-Aq-NF-kB, -0.775 z-score.

With “CCGATTAACATCAGGAGAACGTGTGATGTTAATCGGGTCTTGATTCGCTTGACGCTGCTG”, the binding signal with GST-Ap-NF-kB RHD is 0.294 z-score; in experiment [1], 0.235 z-score; in the experiment with GST-Co-NF-kB, 0.709 z-score; with GST-Dm-Relish, 0.593 z-score; with GST-Aq-NF-kB, -0.292 z-score.

With “CCGATTAACATCACCTTGTGATCTGATGTTAATCGGGTCTTGATTCGCTTGACGCTGCTG”, the binding signal with GST-Ap-NF-kB RHD was 0.0776 z-score; in experiment [1], -0.389 z-score; in the experiment with GST-Co-NF-kB, -0.118 z-score; with GST-Dm-Relish, 0.284 z-score; with GST-Aq-NF-kB it was 0.125 z-score.

For “CCGATTAACATCATGCAAGATTGTGATGTTAATCGGGTCTTGATTCGCTTGACGCTGCTG”, the binding signal with GST-Ap-NF-kB RHD was -0.00256 z-score; in experiment [1] it was -0.212 z-score; with GST-Co-NF-kB, -0.0589 z-score; in the experiment with GST-Dm-Relish, 0.506 z-score; in the experiment with GST-Aq-NF-kB it was -0.407 z-score.

Turning to “CCGATTAACATCATAGCCCACCTTGATGTTAATCGGGTCTTGATTCGCTTGACGCTGCTG”, the binding signal with GST-Ap-NF-kB RHD was 0.168 z-score; in experiment [1], -0.819 z-score; with GST-Co-NF-kB, -0.132 z-score; with GST-Dm-Relish, -0.906 z-score; with GST-Aq-NF-kB it was -0.119 z-score.

Regarding “CCGATTAACATCATGAAATTCCATGATGTTAATCGGGTCTTGATTCGCTTGACGCTGCTG”, the binding signal with GST-Ap-NF-kB RHD was -1.17 z-score; in experiment [1], -0.146 z-score; with GST-Co-NF-kB, -0.374 z-score; with GST-Dm-Relish, 0.27 z-score; with GST-Aq-NF-kB, 0.222 z-score.

“CCGATTAACATCACGATGAATCCTGATGTTAATCGGGTCTTGATTCGCTTGACGCTGCTG”: the binding signal with GST-Ap-NF-kB RHD was -0.657 z-score; in experiment [1], 0.363 z-score; with GST-Co-NF-kB, -1.02 z-score; with GST-Dm-Relish, -0.376 z-score; with GST-Aq-NF-kB, -0.426 z-score.
